Data published in paper PMC9792514, “C-type lectin-like receptor (CLEC)-2, the ligand of podoplanin, induces morphological changes in podocytes” (Scientific Reports, 2022).

What was measured:
mouse podoplanin (PDPN) = target: T1, mouse podoplanin (PDPN) (mouse (endogenous in primary cultured …, UniProt Q62011 23-172)); test: cell-based or functional assay
T1 sequence (looked up): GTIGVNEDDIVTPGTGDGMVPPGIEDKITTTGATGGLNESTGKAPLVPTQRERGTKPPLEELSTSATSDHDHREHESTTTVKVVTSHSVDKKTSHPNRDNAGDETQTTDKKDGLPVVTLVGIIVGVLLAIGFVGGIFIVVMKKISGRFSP

[1] = target: the molecule itself; test: native gel or EMSA; Blue Native PAGE of the purified recombinant proteins in aqueous solution

pERM/ERM ratio by Western blot in cultured podocytes treated with Fc-CLEC-2 at 37 C for 1 h, against Fc (mouse podoplanin (PDPN)): 0.47 fold
B1: Fc-CLEC-2, a fusion of the Fc tag and C-terminal extracellular domain of human CLEC-2 ([…]) (Fc fusion)
chain: not shown
notes: C-type lectin-like receptor 2 (CLEC-2), human, C-terminal extracellular domain, […]; Tetramer of about 240 kDa by Blue Native PAGE; Fc alone is also a tetramer; also called Fc-human CLEC-2; recombinant Fc-human CLEC-2
stoichiometry N [1]: 4
